Data as given in PubChem BioAssay AID463173 (ICCB-Longwood Screening Facility, Harvard Medical School, 2010).
Screen size: about 52,000 compounds; about 1,700 (3.3%) were called active. Cut-off read from the data, not from the text of the source: active = survival mostly below about 52% (no sharp cut-off); inactive = mostly above about 56%. The list shows a part of the results.

Test system: Wild type
Assay: S. aureus survival, RN4220 and DeltatarO strains – OD600, teichoic acid synthesis inhibitors, primary screen (AID 463173)
Conditions: S. aureus RN4220 wild type/DeltatarO growth, OD600, 18 h, active compounds read low, screened at 18.75 µg/mL (by protocol)

| SMILES | survival |
| --- | --- |
| COc1ccc(-n2nc(C(=O)N3CCN(c4ccc(F)cc4)CC3)c3c4ccccc4n(C)c3c2=O)cc1 | inactive: 79% |
| COc1ccc(-c2cc3ccc(O)c(CN4CCC(C)CC4)c3oc2=O)cc1 | inactive: 70% |
| O=C(Nc1ccc2oc(-c3cccnc3)nc2c1)c1ccc(-c2ccccc2OC(F)(F)F)o1 | inactive: 83% |
| COc1ccc(-n2nc(C(=O)Nc3cc(OC)c(OC)c(OC)c3)c(=O)n(C)c2=O)cc1 | inactive: 152% |
| O=C1C=CC(=O)N1c1ccc(-c2cnc(-c3ccc(N4C(=O)C=CC4=O)cc3)nc2)cc1 | inactive: 92% |
| O=C(O)c1ccc(Nc2nc3ccccc3n3cnnc23)cc1 | inactive: 84% |
| CCC1CCc2nc3sc(C(=O)Nc4ccc(C)cc4)c(N)c3cc2C1 (configuration not stated) | inactive: 84% |
| COc1ccc(OC)c2sc(N3CCN(C(=O)c4ccc5c(c4)CCCC5)CC3)nc12 | inactive: 72% |
| COc1ccccc1C(=O)NCCn1cc(SCc2ccc(C)cc2)c2ccccc21 | active: 3% |
| CCCCCn1c(=O)[nH]c2cc(C(=O)NCc3ccc(Cl)cc3)ccc2c1=O | inactive: 83% |
| COc1ccc(C2CC(=O)N(Cc3ccc(F)cc3)c3ccccc3S2)cc1OC (configuration not stated) | inactive: 88% |
| O=C(CN1CCN(Cc2cccc(Cl)c2)C1=O)NCc1ccc(F)cc1 | inactive: 63% |
| CCN(c1ccccc1C)S(=O)(=O)c1ccc(N2CCCCS2(=O)=O)cc1 | inactive: 140% |
| c1ccc(N2CCN(Cc3cccn3-c3nnc(N4CCN(C5CCCCC5)CC4)s3)CC2)cc1 | inactive: 88% |
| CCc1ccccc1NS(=O)(=O)c1ccc2c(c1)CCN2C(=O)C1CC1 | inactive: 72% |
| CCc1ccc(-c2nn(CC(=O)NC3CCCCC3)c3c2cnc2ccc(C)cc23)cc1 | inactive: 73% |
| CCOc1ccc(CCNC(=O)c2nn(-c3ccc(OC)c(Cl)c3)c(=O)c3c2c2ccccc2n3C)cc1OCC | inactive: 88% |
| O=C(c1ccco1)N1CCN(Cc2cccc(Br)c2)CC1 | inactive: 94% |
| COc1ccccc1NC(=O)NC1(C(=O)N2CCc3ccccc32)CCCCC1 | inactive: 102% |
| Cc1nn(-c2ccccc2)c(-n2cccc2)c1C(=O)NCCc1ccc(Cl)cc1 | active: 2% |
| Cn1c(=O)c2cc(C(=O)NCCCN3CCN(c4cccc(Cl)c4)CC3)sc2c2ccccc21 | inactive: 63% |
| O=C(COc1ccc(Br)cc1Cl)Nc1ncn[nH]1 | inactive: 74% |

| SMILES | survival |
| --- | --- |
| CN=C1SC(CC(=O)NC)C(=O)N1C (configuration not stated) | inactive: 110% |
| O=C(Nc1ccc(Br)cc1)c1ccc(F)c(S(=O)(=O)N2CCCc3ccccc32)c1 | inactive: 57% |
| CC(=O)Nc1ccc(N(C)C(C)=O)cc1 | inactive: 110% |
| CC(C)Cn1c(=O)c2sccc2n2c(CCCC(=O)NCCc3ccc(Cl)cc3)nnc12 | inactive: 96% |
| CC(C)NC(=O)c1ccc(-n2c(-c3ccccc3)cc3c2CCCC3)cc1 | inactive: 86% |
| COCCCNC1CC(=O)N(c2ccc(OC)cc2)C1=O (configuration not stated) | inactive: 117% |
| CCc1ccc(NC(=O)CSc2nc(-c3ccccc3Cl)nc3c2Cc2c(CO)cnc(C)c2O3)cc1 | inactive: 108% |
| COc1ccc(OCC(=O)Nc2ccc3c(c2)nc(CCNC(=O)c2ccco2)n3C)cc1 | inactive: 98% |
| CCc1ccc2nc(N(Cc3cccnc3)C(C)=O)sc2c1 | inactive: 90% |
| CCOC(=O)c1ccc(CN(Cc2ccc(Cl)cc2Cl)S(=O)(=O)c2ccc(F)c(C)c2)cc1 | inactive: 113% |
| Cc1ccccc1OCCCn1c(-c2ccc(Cl)cc2)nc2ccccc2c1=O | inactive: 73% |
| O=C(Nc1nnc(S(=O)(=O)N2CCCC2)s1)c1ccccc1Br | inactive: 69% |
| Cn1c(=O)oc2cc(S(=O)(=O)N3CCC(C(=O)NCc4ccc(F)cc4)CC3)ccc21 | inactive: 84% |
| COc1ccc(Nc2nc3cc(Cl)c(Cl)cc3n3cnnc23)cc1Cl | inactive: 88% |
| CCOC(=O)c1ccc(NC(=O)CSc2nnc(CNC(=O)c3ccc(OC)cc3)n2CC)cc1 | inactive: 134% |
| CC(C(=O)NCc1ccc2c(c1)OCO2)N(c1ccccc1)S(C)(=O)=O (configuration not stated) | inactive: 115% |
| COc1ccc(NC(=O)CC2C(=O)N(c3ccc(C)cc3)C(=O)N2Cc2ccc3c(c2)OCO3)cc1 (configuration not stated) | inactive: 133% |
| CCOC(=O)C1CCN(Cc2cn[nH]c2-c2ccc(C)cc2)CC1 | inactive: 106% |
| Cc1ccccc1Cn1nnc2c(=O)[nH]c(C3CCCN(C(=O)c4ccc(F)cc4)C3)nc21 (configuration not stated) | inactive: 120% |
| COc1ccc(N2CCN(S(=O)(=O)c3ccc4c(c3)CCCN4C(C)=O)CC2)cc1 | inactive: 65% |
| Nc1cc(=O)[nH]c(=S)n1-c1ccccc1 | inactive: 103% |
| CCC(C)n1c(SCc2c(F)cccc2Cl)nc2ccsc2c1=O (configuration not stated) | inactive: 131% |

| SMILES | survival |
| --- | --- |
| CC1CCN(CCCNC(=O)c2cn(C)c3ccc(S(=O)(=O)N(C)C4CCCCC4)cc3c2=O)CC1 | inactive: 136% |
| COc1cc2c(cc1OC)C(COc1ccc(C(C)C)cc1)N(C(=O)c1ccc(S(=O)(=O)N3CCCC3)cc1)CC2 (configuration not stated) | inactive: 78% |
| Cc1ccc(C)c(CN2C(=O)c3ccccc3S(=O)c3ccc(C(=O)N4CCN(c5ccccc5F)CC4)cc32)c1 (configuration not stated) | inactive: 89% |
| COc1cc(N2C(=O)CSC23C(=O)N(Cc2ccc(C)cc2)c2ccccc23)cc(OC)c1OC (configuration not stated) | inactive: 72% |
| Cc1ccc2c(c1)N(C(=O)CCC(=O)NCc1cccs1)CCO2 | inactive: 82% |
| COc1ccc(Br)c(C(=O)Nc2cc3c(cc2N2CCCCC2)n(C)c(=O)c(=O)n3C)c1 | inactive: 73% |
| CCc1cc(C(=O)NC(C)c2ccccc2)no1 (configuration not stated) | inactive: 71% |
| COC(=O)c1cc(NC(=O)[C@H](CCS(C)(=O)=O)N2Cc3ccccc3C2=O)cc(C(=O)OC)c1 | inactive: 87% |
| CCc1ccc(-c2nc3cc(NC(=O)c4cc5ccccc5cc4OC)ccc3o2)cc1 | active: 14% |
| COc1cc2c(cc1OC)C(COc1ccc(F)cc1)N(C(=O)c1ccc(S(=O)(=O)N3CCCC3)cc1)CC2 (configuration not stated) | inactive: 88% |
| COc1cc(C2CC(=O)N(Cc3ccc(F)cc3)c3ccccc3S2)cc(OC)c1OC (configuration not stated) | inactive: 72% |
| O=C(CCCn1c(=O)c2ccccc2n(Cc2ccc(F)cc2Cl)c1=O)NCCc1ccc(Cl)cc1 | inactive: 88% |
| COC(=O)c1ccccc1NC(=O)c1nc(S(=O)(=O)Cc2cccc(C)c2)ncc1Cl | inactive: 73% |
| COc1ccc(NC2CC(O)C(CO)O2)cc1 (configuration not stated) | inactive: 114% |
| COC(=O)c1ccccc1NC(=O)c1ccc2nc(Cc3ccccc3)oc2c1 | inactive: 75% |
| CC1CCc2c(sc3ncnc(NCCOCCO)c23)C1 (configuration not stated) | inactive: 106% |
| Cc1ccc(-n2nc(CO)c(C(=O)NCc3cccs3)n2)cc1C | inactive: 85% |
| CC(=O)Nc1ccc(NC(=O)c2ccc(COc3ccc(Cl)cc3Cl)o2)cc1 | inactive: 81% |
| Cc1cccc(NC(=O)c2c(C)cc(C)nc2SCC(=O)Nc2c(C)cc(C)cc2C)c1 | inactive: 83% |
| CCOc1ccc(-c2cc(-c3nc(-c4cc(OC)c(OC)c(OC)c4)no3)[nH]n2)cc1Cl | inactive: 80% |
| COc1ccc(C)cc1NC(=O)C1CCN(S(=O)(=O)c2ccc3[nH]c4c(c3c2)CCCCC4)CC1 | inactive: 74% |
| Nc1cc(=O)nc(SCC(=O)Nc2ccc(F)cc2)n1-c1ccccc1Cl | inactive: 76% |

| SMILES | survival |
| --- | --- |
| O=C(COc1ccc([N+](=O)[O-])cc1)NCC1(N2CCOCC2)CCCCC1 | inactive: 96% |
| Cc1cc(C)cc(NC(=O)CCCN2C(=O)COc3ccc(C)cc32)c1 | inactive: 77% |
| COc1ccc(CC(=O)NC2CCN(Cc3nnnn3C(C)(C)C)CC2)cc1OC | inactive: 124% |
| Oc1c(C(c2ccccc2F)N2CCCCC2)sc2nc(-c3ccco3)nn12 (configuration not stated) | inactive: 70% |
| CC(=O)c1cccc(NC(=O)CSc2nc(=O)n(Cc3cccnc3)c3c2CCC3)c1 | inactive: 70% |
| CC1/C(=N/O)CC(c2ccco2)NC1c1ccco1 (configuration not stated) | inactive: 113% |
| CC(C)c1ccc(NC(=O)C2CCN(c3nc(-c4ccc(C(C)C)cc4)no3)CC2)cc1 | inactive: 119% |
| CCCCc1nc2ccccc2n2c(-c3ccc(OC)cc3)c3c(=O)n(C)c(=O)n(C)c3c12 | inactive: 52% |
| Cc1c(C(=O)N2CCC(C)CC2)c(S(=O)(=O)NCc2ccc(Br)cc2)c(C)n1C | inactive: 80% |
| CC(C)CC(=O)Nc1ccc(S(=O)(=O)Nc2cc3c(cc2N2CCOCC2)n(C)c(=O)c(=O)n3C)cc1 | inactive: 60% |
| Cc1ccc(NC(=O)c2cn3c4c(ccc(Cl)c4c2=O)OC(C)C3)c(C)c1 (configuration not stated) | inactive: 71% |
| COc1ccc(OC)c(/C=N/c2ncn[nH]2)c1 | inactive: 105% |
| O=C(CCc1cn(Cc2ccccc2Cl)c2ccccc12)NC1CCCCC1 | inactive: 82% |
| COc1ccc(-n2ncc(C(=O)N3CCN(c4ncccn4)CC3)c2C2CCN(C(=O)OC(C)(C)C)CC2)cc1 | inactive: 72% |
| Cc1ccccc1Nc1c(-c2ccc(Cl)s2)nc2c(C)cccn12 | inactive: 69% |
| COc1ccc(CNC(=O)c2cc(-c3cccc(Cl)c3)on2)cc1 | inactive: 85% |
| CC(C)(C)OC(=O)N1CCC(c2c(C(=O)NCCCN3CCc4ccccc4C3)cnn2-c2ccccc2)CC1 | inactive: 87% |
| Cc1ccc(N2CC(NC(=O)c3ccc(S(=O)(=O)N4CCCC4)cc3)CC2=O)cc1 (configuration not stated) | inactive: 66% |
| CCOc1ccccc1NC(=O)Cn1c(=O)n(CCCC(=O)NCCc2ccc(C)cc2)c(=O)c2ccccc21 | inactive: 92% |
| COc1ccc(-c2c(C)c3cc(OC(=O)N4CCOCC4)ccc3oc2=O)cc1 | inactive: 71% |
| COc1ccc(OC)c(NC(=O)CCc2c(C)nn(-c3ccc(N4CCCC4)nn3)c2C)c1 | inactive: 132% |
